Out of some 150,000 compounds screened, about 540 (0.36%) showed an effect of 50% or more. The list shows a part of the results.

In the assay the test system is Plasmodium falciparum. The experiment in a line: Primary screen in NF54 nanoGlo assay, in single point, at 2uM, 72h; a lower Z score goes with more inhibition. It is filed as functional, Erythrocyte. Conditions: timepoint 72 hour.
With `CC[C@H]1C(=O)NCCCN1C(=O)Cc1n[nH]c2c1CCCC2`, the “% Inhibition” value is given as -5% and the Z score came to 0.84.

With `OC1(CNc2ccc3cccc(Br)c3n2)CCOCC1`, the “% Inhibition” value is given as -3% and the Z score amounted to 0.38.

For the compound `NC(=O)Cn1ccnc1-c1cncc(Br)c1`, the “% Inhibition” value stood at 4% and the Z score is listed as -0.46.

On to `COC[C@@H]1CN(c2ccncn2)C[C@H]1C(=O)NCCn1cccn1`, for which the “% Inhibition” value is -6% and the Z score is reported as 0.95.

Consider `Cn1cc(-c2csc(CNc3ccn(CC(F)F)n3)n2)cn1`, for which the “% Inhibition” value is listed as -4% and the Z score is 0.65.

Regarding `CCOc1ccccc1-c1cc(C(=O)NCCc2ccccc2)c2c(-c3ccccc3)[nH]nc2n1`, the “% Inhibition” value is recorded as -4% and the Z score is reported as 0.51.

Turning to `CN1c2cc(F)c(NC(=O)NCc3cccs3)cc2N(C)S1(=O)=O`, the “% Inhibition” value was -19% and the Z score came out at 2.42.

Turning to `Cc1ccc(NCCNCc2ccccc2Cl)nn1`, the “% Inhibition” value was found to be 28% and the Z score is -3.18.

For `O=C(OCc1cc(Cl)c2c(c1)OCO2)c1cnccn1`, the “% Inhibition” value is reported as 30% and the Z score is recorded as -3.82.

As to `COc1c2c(cc3c1[C@H](C(=O)NC(c1ccccc1)c1ccccc1)[N+](C)(C)CC3)OCO2`, the “% Inhibition” value is given as 2% and the Z score is on record as -0.21.

As to `CCn1nnnc1NC(=O)NCCc1[nH]nc2c1CCCC2`, the “% Inhibition” value is recorded as 2% and the Z score is recorded as -0.24.

For `O=C(c1ccc2[nH]ccc2c1)N1CC(c2nc(C3CC3)no2)C1`, the “% Inhibition” value is recorded as -11% and the Z score is 2.09.

As for `CCS(=O)(=O)Cc1ccc(NC(=O)NCC2=CCCCC2)cc1`, the “% Inhibition” value is -8% and the Z score came out at 1.05.

With `COCCn1cnc2c(-c3ccccc3)cn(CC(=O)Nc3ccc4c(c3)OCO4)c2c1=O`, the “% Inhibition” value is listed as -5% and the Z score amounted to 0.91.

`CC(C)(C)CNC(=O)CC1(C(=O)NCC(C)(C)C)CCOCC1`: the “% Inhibition” value was -9% and the Z score is listed as 0.76.

As for `CN(CCc1cnn(C)c1)Cc1nc(-c2ccccc2)cs1`, the “% Inhibition” value is on record as -3% and the Z score is 0.48.

`O=C(Cc1ccc(-c2ccccc2)cc1)Nc1cccnc1`: the “% Inhibition” value came to 29% and the Z score is -3.9.

For the compound `CCCn1cnc2cc(-c3noc(-c4cccc(F)c4)n3)ccc21`, the “% Inhibition” value was -6% and the Z score was determined as 0.73.

Regarding `Fc1cc(-c2cnc3nncn3c2)cc(F)c1F`, the “% Inhibition” value is -8% and the Z score was determined as 0.98.

For the compound `O=C(c1ccco1)N1CCN(c2cnsn2)CC1`, the “% Inhibition” value is on record as -24% and the Z score turned out to be 3.11.

With `O=C(NCC#Cc1cccc(F)c1)C1CCS(=O)(=O)CC1`, the “% Inhibition” value was determined as 1% and the Z score is -0.1.

For the compound `Cc1cc(Nc2[nH]nc(N)c2C#N)ccc1F`, the “% Inhibition” value was determined as 0% and the Z score was -0.04.

`O=S(=O)(c1ccc(N2CCCC2)c(NCc2c(F)cccc2Cl)c1)N1CCOCC1`: the “% Inhibition” value is given as -15% and the Z score worked out at 3.01.

As to `Cc1cc(-c2ccccc2)nc(CN(C)Cc2nc(C)c[nH]2)n1`, the “% Inhibition” value is 3% and the Z score is recorded as -0.44.

As to `CC(C)c1nnc(NC(=O)c2scnc2C(C)(C)C)[nH]1`, the “% Inhibition” value was determined as 1% and the Z score was -0.1.

`COCCCNC(=O)Nc1nnc(N(C)Cc2ccccc2)s1`: the “% Inhibition” value is reported as -5% and the Z score is recorded as 0.77.

`Cc1ccc2nc3c(c(C(=O)O)c2c1)CCCC3=Cc1cnn(C(C)C)c1`: the “% Inhibition” value is listed as -5% and the Z score is 0.72.

With `CC(C)c1nc2c(c(OC3CCN(C(=O)NCCc4ccccc4)CC3)n1)CCOCC2`, the “% Inhibition” value is -10% and the Z score worked out at 1.57.

Turning to `CCOC1CC(O)(CNC(=O)C(C)C)C1(C)C` (stereo unspecified), the “% Inhibition” value is given as -7% and the Z score is on record as 1.12.

On to `O=C(CCn1ccnn1)Nc1ccc(OC2CCCC2)c(Cl)c1`, for which the “% Inhibition” value is recorded as -38% and the Z score was 4.42.

As for `COc1cccc(NC(=O)c2n[nH]c3c2CCc2ccccc2-3)c1`, the “% Inhibition” value was -13% and the Z score came to 1.13.

With `CC(=O)Nc1ccc(C(=O)N[C@H]2CCCC[C@H]2CC(F)(F)F)nc1`, the “% Inhibition” value is -10% and the Z score amounted to 1.28.

Take `C[C@H](OCC1CC1)C(=O)N1CCN(c2ncccn2)CC1`: the “% Inhibition” value is -4% and the Z score is given as 0.65.

In the case of `COc1ccccc1CNC(=O)c1cnc(N2CCOCC2)nc1N`, the “% Inhibition” value was -5% and the Z score is reported as 0.52.

In the case of `CC1(CNC(=O)c2ccccn2)CCOCC1`, the “% Inhibition” value is given as -9% and the Z score is 1.55.

As for `Cc1ccc(OCc2cc(C(=O)N(C)[C@@H](C)c3c(C)nn(C)c3C)no2)cn1`, the “% Inhibition” value is on record as 1% and the Z score was -0.11.

Regarding `CCN(CC)Cc1nc(-c2ccsc2)no1`, the “% Inhibition” value is given as -2% and the Z score was 0.19.

With `Cn1cc(N2C[C@@H](C(=O)N3CC(C(F)(F)F)C3)CCC2=O)cn1`, the “% Inhibition” value was -4% and the Z score was found to be 0.62.

For `CN(C)C(=O)N1CCC2(CC1)C(=O)N(CC(=O)NCc1ccc(F)cc1)CN2c1ccccc1`, the “% Inhibition” value is -9% and the Z score is recorded as 0.88.

With `Cc1ccc(NC[C@H]2CCN(c3cc(C)nc(N)n3)C2)nc1`, the “% Inhibition” value amounted to 10% and the Z score is -1.52.

Take `O=C(CS(=O)(=O)C1CC1)N1CCN2CCOc3cccc1c32`: the “% Inhibition” value is reported as -10% and the Z score came to 1.64.

In the case of `CCN1CCN(C(=O)c2cccc(-c3cc(N)nc(N(CC)CC)n3)c2)CC1`, the “% Inhibition” value is given as -5% and the Z score stood at 0.71.

`CCC1CCCCC1OCC(=O)NC1COc2ccccc2C1=O` (stereo unspecified): the “% Inhibition” value is recorded as -3% and the Z score worked out at 0.44.

Broadly, the % Inhibition is the change of the read-out against control, counted positive when it falls.
